# Assay results taken from the supplement of paper PMC12297408.
# Counter-ions that a name gives are not always drawn. Hit rate of the full screen: of about 1,300 compounds, about 40 (3%) showed activity. The list shows a part of the results.
# Tested on: Plasmodium falciparum NF54/iGP1_RE9H ulg8 stage V gametocytes
# Assay: gametocyte viability (luciferase signal relative to DMSO control) (% of DMSO control); higher = less gametocytocidal activity, active = 50 or less
# Details: exposure time: 72 h
# How it was run: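 Compounds from 10 mM DMSO stocks were spotted at nanolitre scale into 96-well plates, and day-12 stage V NF54/iGP1_RE9Hulg8 gametocytes (~2.5% gametocytemia, 3% hematocrit; medium with 0.5% Albumax II) were added to reach 10 µM or 1 µM, one well per concentration. The plates were kept at 37 °C for 72 h. Luminescence was then read on an IVIS Lumina II after mixing 90 µl of culture with 10 µl D-luciferin (30 mg/ml). Viability values are relative to the plate's mean DMSO vehicle signal.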
Structure (SMILES),gametocyte viability (concentration: 1 µM),gametocyte viability (concentration: 10 µM)
C[C@H](N[C@@H](CCc1ccccc1)C(=O)O)C(=O)N1CCC[C@H]1C(=O)O [Enalaprilat dihydrate],inactive: 82.6,inactive: 87.4
COC(=O)[C@H](c1ccccc1Cl)N1CCc2sccc2C1 [Clopidogrel],inactive: 86.2,inactive: 93.7
C[C@]12CCC(=O)C=C1CC[C@@H]1[C@@H]2C(=O)C[C@@]2(C)[C@H]1CC[C@]2(O)C(=O)CO [Cortisone],inactive: 92.6,inactive: 93.8
COCCCC/C(=N\OCCN)c1ccc(C(F)(F)F)cc1 [Fluvoxamine maleate],inactive: 93.3,inactive: 91.7
CC(=O)[C@@]12O[C@](C)(c3ccccc3)O[C@@H]1C[C@H]1[C@@H]3CCC4=CC(=O)CC[C@]4(C)[C@H]3CC[C@@]12C [Algestone acetophenide],inactive: 93,inactive: 103
C[C@@H](O[C@H]1OCCN(Cc2n[nH]c(=O)[nH]2)[C@H]1c1ccc(F)cc1)c1cc(C(F)(F)F)cc(C(F)(F)F)c1 [Aprepitant],inactive: 87.7,inactive: 75.4
CN1CCCN=C1/C=C/c1cccc(O)c1 [Oxantel pamoate],inactive: 80.4,inactive: 87.7
CC(N)CCCC(C)(C)O (centres undefined) [Heptaminol hydrochloride],inactive: 82.3,inactive: 84.6
CC(C)OC(=O)C(C)(C)Oc1ccc(C(=O)c2ccc(Cl)cc2)cc1 [Fenofibrate],inactive: 99.4,inactive: 98.6
"Cc1c(O)c(=O)n(-c2ccccc2)n1C [Antipyrine, 4-hydroxy]",inactive: 86,inactive: 86.8
CC=CC1=C(C(=O)O)N2C(=O)[C@@H](NC(=O)[C@H](N)c3ccc(O)cc3)[C@H]2SC1 [Cefprozil],inactive: 83.2,inactive: 80.7
Cc1cc2c(s1)Nc1ccccc1N=C2N1CCN(C)CC1 [Olanzapine],inactive: 97,inactive: 90.5
CCCCc1ccc2[nH]c(NC(=O)OC)nc2c1 [Parbendazole],inactive: 95.1,inactive: 97
Nc1ncnc2c1ncn2C1OC(COP(=O)(O)O)C(O)C1O (centres undefined) [Adenosine 5'-monophosphate monohydrate],inactive: 81.1,inactive: 83.8
CCOc1ccc2nc(S(N)(=O)=O)sc2c1 [Ethoxzolamide],inactive: 88.1,inactive: 91.9
CN1CCCN(C(c2ccccc2)c2ccc(Cl)cc2)CC1 (centres undefined) [Homochlorcyclizine dihydrochloride],inactive: 84.6,inactive: 68.1
C[C@@H]1C[C@H]2[C@@H]3CCC4=CC(=O)C=C[C@]4(C)[C@@]3(Cl)[C@@H](O)C[C@]2(C)[C@@]1(OC(=O)c1ccco1)C(=O)CCl [Mometasone furoate],inactive: 88.8,inactive: 96
C=C1c2cccc(O)c2C(O)=C2C(=O)[C@]3(O)C(O)=C(C(N)=O)C(=O)[C@@H](N(C)C)[C@@H]3[C@@H](O)[C@H]12 [Methacycline hydrochloride],inactive: 89.8,inactive: 89.5
O=C(O)c1cc(/N=N/c2ccc(S(=O)(=O)Nc3ccccn3)cc2)ccc1O [Sulfasalazine],inactive: 103,inactive: 96.4

Structure (SMILES),gametocyte viability (concentration: 1 µM),gametocyte viability (concentration: 10 µM)
C/C(=C\C(=O)OCCCCCCCCC(=O)O)C[C@@H]1OC[C@H](C[C@@H]2O[C@H]2[C@@H](C)[C@H](C)O)[C@@H](O)[C@H]1O [Mupirocin],inactive: 102,inactive: 95.8
CCc1cccc(CC)c1NC(=O)CN(CC(=O)O)CC(=O)O [Etifenin],inactive: 94.6,inactive: 95
CN/C(=N\CCSCc1nc[nH]c1C)NC#N [Cimetidine],inactive: 100,inactive: 94.5
COc1ccc2cc([C@H](C)C(=O)O)ccc2c1 [Naproxen],inactive: 93,inactive: 94.9
C/C=C(/C(=C/C)c1ccc(O)cc1)c1ccc(O)cc1 [Dienestrol],inactive: 91.2,inactive: 96.9
Cc1ncc([N+](=O)[O-])n1CC(C)O (centres undefined) [Secnidazole],inactive: 96.2,inactive: 98.6
O=C(O)c1ccccc1OP(=O)(O)O [Fosfosal],inactive: 90,inactive: 81.4
CC1(C)S[C@@H]2[C@H](NC(=O)[C@H](N)c3ccccc3)C(=O)N2[C@H]1C(=O)O [Ampicillin trihydrate],inactive: 82,inactive: 82.2
O=c1n(CCCN2CCN(c3cccc(Cl)c3)CC2)nc2ccccn12 [Trazodone hydrochloride],inactive: 90.8,inactive: 86.5
Cc1nc2ccccn2c(=O)c1CCN1CCC(C(=O)c2ccc(F)cc2)CC1 [Pirenperone],inactive: 85.1,inactive: 88.8
CSc1nc2cc(Cl)c(Oc3cccc(Cl)c3Cl)cc2[nH]1 [Triclabendazole],inactive: 85.7,inactive: 92
O=C(CCNNC(=O)c1ccncc1)NCc1ccccc1 [Nialamide],inactive: 87.4,inactive: 84.5
N/C(=N\C(=O)c1nc(Cl)c(N)nc1N)NCc1ccccc1 [Benzamil hydrochloride],inactive: 88.7,inactive: 81.1
NC(=O)c1cnccn1 [Pyrazinamide],inactive: 89.4,inactive: 83.6
CC(=O)O[C@H]1C(=O)[C@@]2(C)[C@H]([C@H](OC(=O)c3ccccc3)[C@]3(O)C[C@H](OC(=O)[C@H](O)[C@@H](NC(=O)c4ccccc4)c4ccccc4)C(C)=C1C3(C)C)[C@]1(OC(C)=O)CO[C@@H]1C[C@@H]2O [Paclitaxel],inactive: 88.3,inactive: 86.7
CCCN(CCC)CCc1cccc2c1CC(=O)N2 [Ropinirole HCl],inactive: 96.2,inactive: 97.1
NS(=O)(=O)c1cc2c(cc1C(F)(F)F)NCNS2(=O)=O [Hydroflumethiazide],inactive: 91.2,inactive: 89.9
CC(C)NC[C@@H](O)COc1ccc(CC(N)=O)cc1 [(R)-(+)-Atenolol],inactive: 85.7,inactive: 91.9
